The densities may have been worked out from excess volumes.
Experiment: xn = mol fraction of the nth substance listed
Settings: 101 kPa

CC(C)[C@H](N)C(=O)[O-].CC[n+]1ccn(C)c1 + O
mass density [kg/m3]
Settings | 303.15 K | 308.15 K | 313.15 K | 318.15 K | 323.15 K | 328.15 K | 333.15 K
x2 = 0.0902 | 1113.7 | 1110.4 | 1107 | 1104 | – | 1097.9 | 1094.9
x2 = 0.113 | 1114.7 | 1111.5 | 1108 | 1105 | 1101.9 | 1098.9 | –
x2 = 0.1231 | – | 1111.9 | 1108.5 | – | – | 1099.4 | 1096.3
x2 = 0.1425 | 1116.1 | 1113 | 1109.5 | – | 1103.2 | 1100.2 | –
x2 = 0.1657 | 1117.5 | 1114.2 | – | 1107.7 | 1104.6 | 1101.5 | 1098.4

Source: a compilation of properties of binary mixtures (doi:10.1021/ie101903t)
